The other results are listed elsewhere or left out. The list includes weakly bound sequences.
Each sequence was assayed against T1, MBP-FoxP3dN (UniProt Q99JB6) (assay: PD-seq (MBP pull-down with sequencing)). Settings: 20 mM Tris-HCl pH 7.5, 100 mM NaCl, 1.5 mM MgCl2, 0.4 uM protein, 0.1 uM dsDNA library, 30 min, room temperature, amylose pull-down; high values mean tight binding; double strand, one strand shown.
T1 sequence: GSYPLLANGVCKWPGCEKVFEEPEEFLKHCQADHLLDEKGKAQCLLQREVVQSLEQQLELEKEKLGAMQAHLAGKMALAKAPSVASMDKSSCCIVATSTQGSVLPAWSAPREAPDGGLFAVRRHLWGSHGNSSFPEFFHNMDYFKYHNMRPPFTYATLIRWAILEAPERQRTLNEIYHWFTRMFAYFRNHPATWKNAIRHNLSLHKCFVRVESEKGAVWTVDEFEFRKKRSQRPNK

Sequence	binding signal (RPM ratio (pull-down/input))
GATGATTGTTCTCCCAGCTGATGAATTATTAATCTCGAGTAAACAAATTTTCCTAATCTTTCTGTTCAAGCGCCATCTAC	0.4
GATGATTGTTCTCCCAGCTGATGAATTGAGGGAGTCGAGTAAACAAATTTTCCTAATCTTTCTGTTCAAGCGCCATCTAC	0.308
GATGATTGTTCTCCCAGCTGATGAATTCCGGTTCTCGAGTAAACAAATTTTCCTAATCTTTCTGTTCAAGCGCCATCTAC	0.726
GATGATTGTTCTCCCAGCTGATGAATTGGCCTACTCGAGTAAACAAATTTTCCTAATCTTTCTGTTCAAGCGCCATCTAC	0.418
GATGATTGTTCTCCCAGCTGATGAATTTCCGCCGTCGAGTAAACAAATTTTCCTAATCTTTCTGTTCAAGCGCCATCTAC	0.555
GATGATTGTTCTCCCAGCTGATGAATTCTGCTTATCGAGTAAACAAATTTTCCTAATCTTTCTGTTCAAGCGCCATCTAC	5.11
GATGATTGTTCTCCCAGCTGATGAATTTCAAGTGTCGAGTAAACAAATTTTCCTAATCTTTCTGTTCAAGCGCCATCTAC	0.415
GATGATTGTTCTCCCAGCTGATGAATTATGCATATCGAGTAAACAAATTTTCCTAATCTTTCTGTTCAAGCGCCATCTAC	4.03
GATGATTGTTCTCCCAGCTGATGAATTGCGTTTTTCGAGTAAACAAATTTTCCTAATCTTTCTGTTCAAGCGCCATCTAC	2.11
GATGATTGTTCTCCCAGCTGATGAATTGATGTAGTCGAGTAAACAAATTTTCCTAATCTTTCTGTTCAAGCGCCATCTAC	0.84
GATGATTGTTCTCCCAGCTGATGAATTAGTATCGTCGAGTAAACAAATTTTCCTAATCTTTCTGTTCAAGCGCCATCTAC	1.96
GATGATTGTTCTCCCAGCTGATGAATTACGGATATCGAGTAAACAAATTTTCCTAATCTTTCTGTTCAAGCGCCATCTAC	0.455
GATGATTGTTCTCCCAGCTGATGAATTTGTCCGATCGAGTAAACAAATTTTCCTAATCTTTCTGTTCAAGCGCCATCTAC	0.439
GATGATTGTTCTCCCAGCTGATGAATTACACGGGTCGAGTAAACAAATTTTCCTAATCTTTCTGTTCAAGCGCCATCTAC	0.325
GATGATTGTTCTCCCAGCTGATGAATTGCCTCGTTCGAGTAAACAAATTTTCCTAATCTTTCTGTTCAAGCGCCATCTAC	0.803
GATGATTGTTCTCCCAGCTGATGAATTCACCCCTTCGAGTAAACAAATTTTCCTAATCTTTCTGTTCAAGCGCCATCTAC	0.282
GATGATTGTTCTCCCAGCTGATGAATTATGTATATCGAGTAAACAAATTTTCCTAATCTTTCTGTTCAAGCGCCATCTAC	5.96
GATGATTGTTCTCCCAGCTGATGAATTGCAGGTGTCGAGTAAACAAATTTTCCTAATCTTTCTGTTCAAGCGCCATCTAC	1
GATGATTGTTCTCCCAGCTGATGAATTGTAGGAGTCGAGTAAACAAATTTTCCTAATCTTTCTGTTCAAGCGCCATCTAC	0.309
GATGATTGTTCTCCCAGCTGATGAATTATCACCGTCGAGTAAACAAATTTTCCTAATCTTTCTGTTCAAGCGCCATCTAC	0.309
GATGATTGTTCTCCCAGCTGATGAATTATGCGGTTCGAGTAAACAAATTTTCCTAATCTTTCTGTTCAAGCGCCATCTAC	1.36

Sequence	binding signal (RPM ratio (pull-down/input))
GATGATTGTTCTCCCAGCTGATGAATTCGCGCCGTCGAGTAAACAAATTTTCCTAATCTTTCTGTTCAAGCGCCATCTAC	0.645
GATGATTGTTCTCCCAGCTGATGAATTCCCTTTGTCGAGTAAACAAATTTTCCTAATCTTTCTGTTCAAGCGCCATCTAC	0.433
GATGATTGTTCTCCCAGCTGATGAATTGAACCTATCGAGTAAACAAATTTTCCTAATCTTTCTGTTCAAGCGCCATCTAC	0.375
GATGATTGTTCTCCCAGCTGATGAATTTAACGTCTCGAGTAAACAAATTTTCCTAATCTTTCTGTTCAAGCGCCATCTAC	0.813
GATGATTGTTCTCCCAGCTGATGAATTAACACTCTCGAGTAAACAAATTTTCCTAATCTTTCTGTTCAAGCGCCATCTAC	0.48
GATGATTGTTCTCCCAGCTGATGAATTGAACTCCTCGAGTAAACAAATTTTCCTAATCTTTCTGTTCAAGCGCCATCTAC	0.282
GATGATTGTTCTCCCAGCTGATGAATTATTATTATCGAGTAAACAAATTTTCCTAATCTTTCTGTTCAAGCGCCATCTAC	1.99
GATGATTGTTCTCCCAGCTGATGAATTTTTTTGATCGAGTAAACAAATTTTCCTAATCTTTCTGTTCAAGCGCCATCTAC	0.23
GATGATTGTTCTCCCAGCTGATGAATTGACGAGTTCGAGTAAACAAATTTTCCTAATCTTTCTGTTCAAGCGCCATCTAC	0.402
GATGATTGTTCTCCCAGCTGATGAATTTCAAGGTTCGAGTAAACAAATTTTCCTAATCTTTCTGTTCAAGCGCCATCTAC	0.253
GATGATTGTTCTCCCAGCTGATGAATTGACCAGTTCGAGTAAACAAATTTTCCTAATCTTTCTGTTCAAGCGCCATCTAC	0.256
GATGATTGTTCTCCCAGCTGATGAATTCTATGATTCGAGTAAACAAATTTTCCTAATCTTTCTGTTCAAGCGCCATCTAC	2
GATGATTGTTCTCCCAGCTGATGAATTATCATAGTCGAGTAAACAAATTTTCCTAATCTTTCTGTTCAAGCGCCATCTAC	0.336
GATGATTGTTCTCCCAGCTGATGAATTTGTATTTTCGAGTAAACAAATTTTCCTAATCTTTCTGTTCAAGCGCCATCTAC	4.85
GATGATTGTTCTCCCAGCTGATGAATTAGTTACGTCGAGTAAACAAATTTTCCTAATCTTTCTGTTCAAGCGCCATCTAC	0.996
GATGATTGTTCTCCCAGCTGATGAATTTCGAACATCGAGTAAACAAATTTTCCTAATCTTTCTGTTCAAGCGCCATCTAC	0.442
GATGATTGTTCTCCCAGCTGATGAATTCTTTTATTCGAGTAAACAAATTTTCCTAATCTTTCTGTTCAAGCGCCATCTAC	0.35
GATGATTGTTCTCCCAGCTGATGAATTGTCTGAATCGAGTAAACAAATTTTCCTAATCTTTCTGTTCAAGCGCCATCTAC	0.252
GATGATTGTTCTCCCAGCTGATGAATTCGATCCATCGAGTAAACAAATTTTCCTAATCTTTCTGTTCAAGCGCCATCTAC	0.313
GATGATTGTTCTCCCAGCTGATGAATTTCTCCAATCGAGTAAACAAATTTTCCTAATCTTTCTGTTCAAGCGCCATCTAC	0.202
GATGATTGTTCTCCCAGCTGATGAATTTCGTAATTCGAGTAAACAAATTTTCCTAATCTTTCTGTTCAAGCGCCATCTAC	1.12

Sequence	binding signal (RPM ratio (pull-down/input))
GATGATTGTTCTCCCAGCTGATGAATTTCGATTCTCGAGTAAACAAATTTTCCTAATCTTTCTGTTCAAGCGCCATCTAC	0.907
GATGATTGTTCTCCCAGCTGATGAATTTCCCGGGTCGAGTAAACAAATTTTCCTAATCTTTCTGTTCAAGCGCCATCTAC	0.138
GATGATTGTTCTCCCAGCTGATGAATTTGTACAGTCGAGTAAACAAATTTTCCTAATCTTTCTGTTCAAGCGCCATCTAC	1.3
GATGATTGTTCTCCCAGCTGATGAATTTTAACAGTCGAGTAAACAAATTTTCCTAATCTTTCTGTTCAAGCGCCATCTAC	0.28
GATGATTGTTCTCCCAGCTGATGAATTGTTTGGATCGAGTAAACAAATTTTCCTAATCTTTCTGTTCAAGCGCCATCTAC	3.7
GATGATTGTTCTCCCAGCTGATGAATTATAACCATCGAGTAAACAAATTTTCCTAATCTTTCTGTTCAAGCGCCATCTAC	0.463
GATGATTGTTCTCCCAGCTGATGAATTCACATTGTCGAGTAAACAAATTTTCCTAATCTTTCTGTTCAAGCGCCATCTAC	0.493
GATGATTGTTCTCCCAGCTGATGAATTCTTCAATTCGAGTAAACAAATTTTCCTAATCTTTCTGTTCAAGCGCCATCTAC	0.256
GATGATTGTTCTCCCAGCTGATGAATTTCATCGATCGAGTAAACAAATTTTCCTAATCTTTCTGTTCAAGCGCCATCTAC	0.393
GATGATTGTTCTCCCAGCTGATGAATTTGATCCGTCGAGTAAACAAATTTTCCTAATCTTTCTGTTCAAGCGCCATCTAC	0.335
GATGATTGTTCTCCCAGCTGATGAATTCAGGCACTCGAGTAAACAAATTTTCCTAATCTTTCTGTTCAAGCGCCATCTAC	0.479
GATGATTGTTCTCCCAGCTGATGAATTTATCGACTCGAGTAAACAAATTTTCCTAATCTTTCTGTTCAAGCGCCATCTAC	0.548
GATGATTGTTCTCCCAGCTGATGAATTTAAGATATCGAGTAAACAAATTTTCCTAATCTTTCTGTTCAAGCGCCATCTAC	0.347
GATGATTGTTCTCCCAGCTGATGAATTGTCCATATCGAGTAAACAAATTTTCCTAATCTTTCTGTTCAAGCGCCATCTAC	0.473
GATGATTGTTCTCCCAGCTGATGAATTTTTATGTTCGAGTAAACAAATTTTCCTAATCTTTCTGTTCAAGCGCCATCTAC	0.471
GATGATTGTTCTCCCAGCTGATGAATTTTATAACTCGAGTAAACAAATTTTCCTAATCTTTCTGTTCAAGCGCCATCTAC	0.381
GATGATTGTTCTCCCAGCTGATGAATTGCGAACTTCGAGTAAACAAATTTTCCTAATCTTTCTGTTCAAGCGCCATCTAC	0.549
GATGATTGTTCTCCCAGCTGATGAATTTAGCTGCTCGAGTAAACAAATTTTCCTAATCTTTCTGTTCAAGCGCCATCTAC	0.751
GATGATTGTTCTCCCAGCTGATGAATTGTTCGCGTCGAGTAAACAAATTTTCCTAATCTTTCTGTTCAAGCGCCATCTAC	0.503
GATGATTGTTCTCCCAGCTGATGAATTAATATTATCGAGTAAACAAATTTTCCTAATCTTTCTGTTCAAGCGCCATCTAC	0.787
GATGATTGTTCTCCCAGCTGATGAATTTACTAAATCGAGTAAACAAATTTTCCTAATCTTTCTGTTCAAGCGCCATCTAC	0.365

— paper PMC12820563
